Test results: PubChem BioAssay AID1745853 (National Center for Advancing Translational Sciences (NCATS), 2022)
Where “and” joins values, the source holds several entries; their conditions need not be identical. Equal entries are not always repeated. Some of the results follow. The main result of the screen is listed elsewhere. These columns were measured beside it and carry no call.

What was measured:
Assay in all cases: Primary Screen for Target Class Profiling of Small Molecule Inhibitors of Methyltransferases
[1] = target: Glycine N-methyltransferase (Homo sapiens) (UniProt Q14749); conditions: purified enzyme, MTase-Glo SAH luminescence; measured here: GNMT inhibition; at 40 µM; stronger effect = lower value
How it was run: (§1)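 Each enzyme was assayed with SAM and its substrate. SAH formation detected by MTase-Glo luminescence; single-point 40 uM screen[…].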

[2] = target: Guanidinoacetate N-methyltransferase (Homo sapiens) (UniProt Q14353); conditions: purified enzyme, MTase-Glo SAH luminescence; measured here: GAMT inhibition; at 40 µM; stronger effect = lower value
How it was run: as §1

[3] = target: Histamine N-methyltransferase (Homo sapiens) (UniProt P50135); conditions: purified enzyme, MTase-Glo SAH luminescence; measured here: HNMT inhibition; at 40 µM; stronger effect = lower value
How it was run: as §1

[4] = target: Nicotinamide N-methyltransferase (Homo sapiens) (UniProt P40261); conditions: purified enzyme, MTase-Glo SAH luminescence; measured here: NNMT inhibition; at 40 µM; stronger effect = lower value
How it was run: as §1

[5] = target: Phenylethanolamine N-methyltransferase (Homo sapiens) (UniProt P11086); conditions: purified enzyme, MTase-Glo SAH luminescence; measured here: PNMT inhibition; at 40 µM; stronger effect = lower value
How it was run: as §1
On the % scale 0 is the no-effect control and ±100 the full control effect.

Compound | activity change, negative = inhibition [1] | activity change, negative = inhibition [2] | activity change, negative = inhibition [3] | activity change, negative = inhibition [4] | activity change, negative = inhibition [5]
O=C(Cn1ccc2cc(S(=O)(=O)N3CCCC3)ccc21)NCc1cccc(F)c1 | -1.11% | 0.58% | 0.712% | -4.87% | -2.42%
COc1ccccc1CNC(=O)C1(C)Cn2cnc(C(=O)Nc3cccc(Cl)c3C)c2C(=O)N1C1CC1 (stereo not drawn) | -5.18% | 0% | 1.86% | -1.19% | -0.368%
CC(C)(Oc1nn(CCOc2ccccc2)c2ccccc12)C(=O)NCc1ccncc1 | -9.51% | -10.1% | -8.66% | -9.43% | -4.25%
CC1CC(C)CN(CCCN2C(=O)c3ccc(-c4ccco4)n3CC2(C)C(=O)NC2CCCCC2)C1 (stereo not drawn) | -4.72% | 4.55% | -6.05% | 2.29% | 0.397%
FC(F)Oc1ccccc1CN(CC1CCN(C2CCCC2)CC1)CC1CCCO1 (stereo not drawn) | -1.66% | 1.58% | -17.5% | -6.81% | 6.78%
CCc1cc2c(cc3n2CC(C)(C(=O)NC2CCCCC2)N(C2CCCCC2)C3=O)s1 (stereo not drawn) | 0.315% | 4.25% | 3.32% | 2.13% | 0.834%
COc1ccccc1-c1ccc2c(n1)CN(CC(=O)N1CCCC1)C(=O)CO2 | -6.72% | -7.08% | -2.27% | -9.68% | -7.44%
CCN(Cc1nccn1C)C(=O)c1ccc(N2CCSCC2)nc1 | -5.01% | -10.2% | -6.48% | -17.1% | -13.4%
CCc1cc2c(cc3n2CC(C)(C(=O)NC2CCC(C)CC2)N(CCCc2ccccc2)C3=O)s1 (stereo not drawn) | 4.59% | -5.64% | 6.32% | 4.45% | 2.34%
COc1ccccc1-n1cc(C(=O)N2CCC3(CCNC(=O)CC3)CC2)cn1 | -2.24% | -2.18% | 1.53% | -2.75% | -1.18%
COC(=O)c1ccc(COc2ccc3c(-c4ccccc4)cc(=O)oc3c2C)cc1 | -6.76% | 0.977% | -0.878% | 3.62% | -6.32%
CCCN1C(=O)c2cc(C(=O)NCCc3ccc(OC)c(OC)c3)nn2CC1(C)C(=O)NC1CCCC1 (stereo not drawn) | 4.18% | 0.641% | -2.35% | 5.39% | 2.2%
CC(C)OCCCNC(=O)C1c2c(n(C)c3ccccc23)SCC(=O)N1c1cccc(Cl)c1 (stereo not drawn) | 4.21% | 0% | 0.553% | -2.15% | 4.48%
C[C@@H]1[C@H](C)CC[C@]2(C(=O)O[C@@H]3O[C@@H](CO[C@@H]4O[C@@H](CO)[C@@H](O[C@@H]5O[C@@H](C)[C@@H](O)[C@@H](O)[C@H]5O)[C@@H](O)[C@H]4O)[C@@H](O)[C@@H](O)[C@H]3O)CC[C@]3(C)C(=CC[C@H]4[C@@]5(C)C[C@@H](O)[C@@H](O)[C@](C)(CO)[C@@H]5CC[C@@]43C)[C@H]12 | – | 1.16% | – | -10.6% | 0.641%
CC(C)CNc1ncnc2c1CN(C1CNC1)C(=O)CN2C | -4.21% | -5.4% | -2.57% | -8.15% | -20.4%
CC[C@]1(O)CC2CN(CCc3c([nH]c4ccccc34)[C@@](C(=O)OC)(c3cc4c(cc3OC)N(C)[C@H]3[C@@](O)(C(=O)OC)[C@H](OC(C)=O)[C@]5(CC)C=CCN6CC[C@]43[C@@H]65)C2)C1 (stereo partly drawn) | -7.17% and -35.6% | 15.9% and 13.6% and 20.2% | 8.33% and 6.34% | 2.25% and -0.927% and -1.96% | 8.41% and 6.71% and 10.2%
CCCn1c(=O)c2cc(Cl)ccc2n2c(SCc3ccccc3)nnc12 | -20.7% | 0% | 9.21% | -8.18% | 4%
